Experimental data: PubChem BioAssay AID1634 (National Center for Advancing Translational Sciences (NCATS), 2009)
The campaign covered roughly 260,000 compounds. About 150 (0.058%) were called active. This list was built around the results that the source calls inconclusive (neither active nor inactive); the mix of calls is not that of the screen. The call rests on the fitted dose curve; in most records, active means well fitted inhibition curve with a large enough effect; inconclusive means small, poorly fitted or top-dose-only effect; inactive means no such curve, though single readings can be large or run the other way. No potency is given beside an inconclusive call; the fits are too rough.

The compounds below were run against Pyruvate kinase PKM (Homo sapiens) (UniProt P14618) (assay: qHTS Assay for Inhibitors of Human Muscle isoform 2 Pyruvate Kinase). Details: purified PKM2, ATP generation, Kinase-Glo luminescence; series mostly up to 57.5 µM.
Procedure, shortened: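 Coupled luciferase luminescence (Kinase-Glo) detects ATP generated from 0.1 mM ADP and 0.5 mM PEP in imidazole buffer pH 7.2 with KCl, MgCl2; 1 h at room temperature. Enzyme at intermediate activity; normalized to uninhibited and no-enzyme controls.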
Further: nearly all actives have a fitted effect of over 60% in size.
Potency means the concentration at half of the fitted maximal effect; tags describe the fitted curve by direction and shape.

Chain of UniProt P14618 (P14618 whole entry, looked up, canonical isoform): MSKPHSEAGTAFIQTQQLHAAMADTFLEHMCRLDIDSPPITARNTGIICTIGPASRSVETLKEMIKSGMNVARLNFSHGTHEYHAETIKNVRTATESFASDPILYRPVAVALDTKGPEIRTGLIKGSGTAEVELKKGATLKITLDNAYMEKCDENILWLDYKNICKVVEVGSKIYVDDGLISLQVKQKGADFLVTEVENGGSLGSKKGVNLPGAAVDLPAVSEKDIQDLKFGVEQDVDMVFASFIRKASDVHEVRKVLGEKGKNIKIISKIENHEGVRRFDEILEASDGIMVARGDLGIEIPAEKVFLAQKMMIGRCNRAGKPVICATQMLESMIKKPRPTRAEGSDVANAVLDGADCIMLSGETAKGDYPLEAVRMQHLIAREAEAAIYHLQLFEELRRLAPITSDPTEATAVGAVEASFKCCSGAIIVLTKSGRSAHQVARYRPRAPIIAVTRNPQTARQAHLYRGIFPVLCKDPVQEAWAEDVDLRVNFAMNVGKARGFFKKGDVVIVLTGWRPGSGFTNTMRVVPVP

SMILES	Potency
Cc1ccnc2nc(C(=O)Nc3ccc4c(c3)OCO4)nn12	inconclusive [falling, partial curve]
c1ccc2sc(NN=C3CCCC3)nc2c1	inconclusive [falling, single point]
c1ccc(-c2cn3c4c(sc3n2)CCCC4)cc1	inconclusive [falling, single point]
Cc1n[nH]c(=O)nc1NCc1ccco1	inactive
Oc1ccc(Nc2nc(-c3cccnc3)cs2)cc1	inactive
Cc1ccc(CNC(=O)CCc2nnc(Cc3ccc(-c4ccccc4)cc3)o2)o1	inactive
C=C(Cl)COc1ccc2c(CCC)cc(=O)oc2c1	inactive
CCC(=O)N1CCN(c2ccc(NC(=O)c3ccc([N+](=O)[O-])o3)cc2)CC1	inconclusive [falling, single point]
C/C(=N\NC(=O)c1n[nH]c2c1CCC2)c1cccs1	inconclusive [falling, single point]
Cc1nc2cc(NCc3nc4ccccc4n3Cc3ccccc3)ccc2n1C	inconclusive [falling, single point]
COc1ccc(C/C(N)=N/OC(=O)c2cccc([N+](=O)[O-])c2)cc1	inactive
O=C(Nc1ccccc1F)c1ccc(CSc2ncccn2)cc1	inconclusive [falling, single point]
Cc1ccc(C)c(Nc2nc(N)c3ccccc3n2)c1	inconclusive [falling, single point]
Cc1[nH]n(-c2ccc(Cl)cc2)c(=O)c1/C=N/n1c(C)nc2ccccc2c1=O	inconclusive [falling, single point]
O=C1CN(Cc2ccccc2)C(=NCc2ccco2)S1	inactive
O=[N+]([O-])c1cccnc1NCc1cccs1	inactive
CCOc1ccc(NC(=O)c2ccccn2)cc1	inconclusive [falling, partial curve]
O=C(N/N=C/c1ccccc1)c1[nH]ncc1Br	inconclusive [falling, single point]
Cc1ccc(C(=O)N2CC(=O)NC(=O)C2)cc1	inactive
CCCCOC(=O)Nc1ccc(S(=O)(=O)Nc2nccs2)cc1	inactive
CC(CCc1ccco1)NC(=O)Cn1ncc2c1-c1ccccc1OC2 (stereo unspecified)	inactive
CC(=O)c1cccc(NC(=O)NC2CCCCC2)c1	inconclusive [falling, partial curve, poor fit]
COc1cc(N=Nc2c(O)c3ccccc3[nH]c2=O)c(OC)cc1N=Nc1ccccc1	inconclusive [falling, single point]
O=C1c2oc3ccccc3c(=O)c2C(c2cccnc2)N1Cc1ccco1 (stereo unspecified)	inactive
CC1=NN(c2ccc([N+](=O)[O-])cc2)C(=O)/C1=C\N(C)C	active: 15.8 µM
O=C(N/N=C/c1ccccc1C(F)(F)F)c1ccc(O)cc1	inconclusive [falling, single point]

SMILES	Potency
COc1ccccc1NC(=S)N1C2CCC1CC(NC(=O)NC13CC4CC(CC(C4)C1)C3)C2 (stereo unspecified)	inconclusive [falling, full curve, poor fit]
COc1ccccc1CNc1ncnc2c1nnn2Cc1ccccc1	inactive
C/C(=N\NC(=O)c1ccoc1C)c1ccccc1	inconclusive [falling, partial curve]
COc1ccc(NC(=O)CSc2nnc(-c3ccco3)c(-c3ccco3)n2)cc1OC	inactive
Cc1cc(=O)[nH]c(SCC(=O)Nc2cccc3ccccc23)c1C#N	inactive
Cn1c(CC2Sc3ccccc3NC2=O)nnc1SCC(=O)c1ccc(Cl)cc1 (stereo unspecified)	inconclusive [falling, single point]
COc1ccc(S(=O)(=O)N2CCCOC2CNC(=O)C(=O)NCCCn2ccnc2)cc1OC (stereo unspecified)	inconclusive [falling, single point]
C=CCNC(=S)N1CCN(CCN=Cc2c(C)[nH]n(-c3ccc([N+](=O)[O-])cc3)c2=O)CC1	inconclusive [falling, partial curve]
CC(NC(=O)CCCCCCN1C(=O)c2ccccc2C1=O)c1ccc2c(c1)CCCC2 (stereo unspecified)	inactive
CCc1ccc(/C=N/NC(=O)c2ccccn2)cc1	inconclusive [falling, partial curve]
Cc1ccc(NS(=O)(=O)c2cc3[nH]c(=O)c(=O)[nH]c3cc2C)c(C)c1	inactive
CC(=O)SC(C[N+](=O)[O-])c1cn(C(C)=O)c2ccccc12 (stereo unspecified)	inactive
Cn1c(=O)c2c(-c3ccccc3)n(Cc3ccccn3)cc2n(C)c1=O	inconclusive [falling, full curve, poor fit]
CC(=O)c1ccc(S(=O)(=O)N2CCN(C(=O)CSc3ccc(F)cc3)CC2)cc1	inactive
CCc1nn2cc(-c3ccccc3)nc2s1	inconclusive [falling, partial curve]
CCOc1cc(/C=C\[N+](=O)[O-])ccc1OCC(=O)Nc1ccccc1C	inactive
CCOC(=O)[C@@H]1CCNC[C@@H]1c1ccccc1	inconclusive [falling, single point]
CN(C)c1ccc(Nc2nc(N)c3ccccc3n2)cc1	inconclusive [falling, partial curve]
Cc1nc(-c2ccc(NC(=O)c3cccs3)cc2)cs1	inconclusive [falling, single point]
Cc1ccc(NS(=O)(=O)c2ccc3c(c2)oc(=O)n3C)c(C)c1	inactive
N#Cc1c(-c2ccncc2)c2c([nH]c1=S)CCCC2	inconclusive [falling, single point]
N/C(=N\OC(=O)C1CCCCC1)c1ccccn1	inconclusive [falling, single point]
O=C(/C=C/c1ccccc1[N+](=O)[O-])NCCc1ccc(F)cc1	inactive
CCc1ccccc1NC(=S)N(CCN1CCOCC1)Cc1ccccc1F	inconclusive [falling, single point]
Cc1nc(-c2ccc(C(=O)Nc3ccccc3F)cc2)cs1	inconclusive [falling, partial curve]
